Results published in the supplement of paper PMC10369915.
Some of the results follow. Cut-off read from the data, not from the text of the source: active = 3.2 or more and inactive = the rest. The signal is at background level for most entries.

B1: AASDH_Y870_T865A (peptide)
chain: ATGLIYIGSHD
B2: SYKtide_2014 (peptide)
chain: AEDEDYESVGA
B3: A2M_Y708_R704H (peptide)
chain: LHVGFYESDVM
B4: AASDH_Y870 (peptide)
chain: TTGLIYIGSHD
B5: ABCC12_Y7_I9L (peptide)
chain: VGEGPYLLSDL
B6: RTKtide_2018 (peptide)
chain: GEDPIYVTLEG
B7: ABCD1_Y180_Q178E (peptide)
chain: FSQETYYRVSN
B8: FEStide_no-pY_2014 (peptide)
chain: ADEEYYEIIAA
B9: ABCD1_Y181_Y181C_YF (peptide)
chain: SQQTFCRVSNM
B10: ABCD1_Y181_R182P (peptide)
chain: SQQTYYPVSNM
B11: ABCD1_Y180_R182P_YF (peptide)
chain: FSQQTYFPVSN
B12: ABCD1_Y281_R285P (peptide)
chain: KGELRYMHSPV
B13: AACS_Y117_I118V (peptide)
chain: DRVALYVAREG
B14: FEStide_E_2014 (peptide)
chain: ADEEEYEIIAA
B15: ABCC2_Y845_L849R (peptide)
chain: VEKGSYSALRA
B16: ABCD1_Y181 (peptide)
chain: SQQTYYRVSNM
B17: ABCD1_Y181_Y181C (peptide)
chain: SQQTYCRVSNM
B18: AASS_Y188_S191R (peptide)
chain: GMAHNYRNRSQ
B19: ZNF830_Y159_S154T (peptide)
chain: TLLPDYEDEEE

target: SHP2 C-SH2 domain E139D; assay: enrichment score (SH2-bound / input frequency) (ratio); bacterial display of known human phosphotyrosine sites (pTyr-Var adds point mutants) read by sequencing; higher = stronger binding; tyrosines were phosphorylated by kinases first; settings: peptide library: pTyr-Var
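Note: displayed peptides selected on beads carrying the immobilized SH2 domain, with library peptides lacking any tyrosine serving as negative controls.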

Enrichment score, inactive:
B1 1.03
B2 0.793
B3 1.92
B4 0.83
B5 0.616
B6 0.755
B7 0.987
B8 1.08
B9 0.696
B10 0.953
B11 1.07
B12 1.27
B13 0.859
B14 0.575
B15 0.689
B16 0.948
B17 0.81
B18 0.284
B19 0.553

target: SHP2 C-SH2 domain wild-type; assay: as above; settings: peptide library: pTyr-Var

Enrichment score, inactive:
B1 1.07
B2 0.508
B3 1.19
B4 0.964
B5 0.632
B6 0.667
B7 0.842
B8 0.996
B9 0.628
B10 0.818
B11 1.2
B12 1.21
B13 0.816
B14 0.792
B15 0.657
B16 0.783
B17 0.914
B18 0.221
B19 0.532

target: SHP2 N-SH2 domain L43F; assay: as above; settings: peptide library: pTyr-Var

Enrichment score, inactive:
B1 1.13
B2 0.472
B3 1.19
B4 0.958
B5 0.615
B6 0.754
B7 0.856
B8 0.929
B9 0.757
B10 0.65
B11 1.18
B12 1.22
B13 0.739
B14 0.665
B15 0.67
B16 0.72
B17 0.752
B18 0.315
B19 0.567

target: SHP2 N-SH2 domain T42A; assay: as above; settings: peptide library: pTyr-Var

Enrichment score, inactive:
B1 1.03
B2 0.579
B3 1.48
B4 0.972
B5 0.594
B6 0.823
B7 0.897
B8 1.06
B9 0.639
B10 0.8
B11 0.997
B12 1.23
B13 0.487
B14 0.518
B15 0.436
B16 0.608
B17 0.662
B18 0.219
B19 0.493

target: SHP2 N-SH2 domain T52S; assay: as above; settings: peptide library: pTyr-Var

Enrichment score, inactive:
B1 1.28
B2 0.504
B3 1.97
B4 1.02
B5 0.707
B6 0.824
B7 0.767
B8 1.25
B9 0.77
B10 0.77
B11 0.997
B12 1.04
B13 0.628
B14 0.468
B15 0.579
B16 0.662
B17 0.711
B18 0.31
B19 0.355

target: SHP2 N-SH2 domain wild-type; assay: as above; settings: peptide library: pTyr-Var

Enrichment score, inactive:
B1 0.901
B2 0.646
B3 1.67
B4 1.04
B5 0.751
B6 0.751
B7 0.954
B8 0.954
B9 0.849
B10 0.772
B11 1.09
B12 1.25
B13 0.931
B14 1.02
B15 0.638
B16 0.871
B17 0.726
B18 0.268
B19 0.637
